These results are taken from the antibiotic and cytotoxicity screens of Wong et al. (2023).

For one assay, the system named is HSkMC. The experiment in a line: cytotoxicity call (relative viability < 0.9). The conditions noted are these: 10 µM.
Another assay relates to HepG2. The experiment in a line: cytotoxicity call (relative viability < 0.9). The note with it: 10 µM.
A further assay has as its system S. aureus RN4220. Put plainly: growth inhibition call (relative growth <= 0.2). The note with it: 50 µM.

The other results are listed elsewhere or left out.

Turning to `C[C@@H](NC(=O)[C@@H]1CCCC[C@H]1C(=O)O)c1ccccc1.C[C@@H](NC(=O)[C@H]1CCCC[C@H]1C(=O)O)c1ccccc1`, the cytotoxicity call with HSkMC and in the assay on HepG2 was “inactive” each time. Besides, in the assay on S. aureus RN4220, the growth inhibition call was “inactive”.

For `C[C@@H]1CN([C@@H](C)CO)C(=O)c2cc(NC(=O)Cn3cnnn3)ccc2O[C@H]1CN(C)CC1CCCCC1`, the cytotoxicity call with HSkMC and in the assay with HepG2 was “inactive” throughout. Also, the growth inhibition call in the assay on S. aureus RN4220 was “inactive”.

In the case of `O=C(c1ccc(F)cc1)N1c2ccccc2C=Cc2ccccc21`, the cytotoxicity call with HSkMC and in the assay with HepG2 was “inactive” each time. In addition, the growth inhibition call in the assay with S. aureus RN4220 is “inactive”.

With `C[C@@H]1CN([C@@H](C)CO)C(=O)c2cccc(NC(=O)c3ccc(-c4nccs4)cc3)c2O[C@@H]1CN(C)C(=O)NC1CCCCC1`, the cytotoxicity call in the assay on HSkMC and in the assay on HepG2 was “inactive” in each case. In addition, the growth inhibition call in the assay with S. aureus RN4220 is “inactive”.

Regarding `C=CC[C@@H](CC(=O)N[C@H](CO)Cc1ccccc1)C(=O)N[C@H](C)COC(=O)[C@H](CC=C)CC(=O)OC(C)(C)C`, the cytotoxicity call in the assay with HSkMC and in the assay on HepG2 was “inactive” each time. Also, the growth inhibition call in the assay on S. aureus RN4220 is “inactive”.

In the case of `Nn1nnc2ccccc21`, the cytotoxicity call in the assay on HSkMC and in the assay on HepG2 was “inactive” throughout. Further, the growth inhibition call in the assay on S. aureus RN4220 was “inactive”.

On to `C[C@@H]1CN([C@H](C)CO)C(=O)c2cc(NC(=O)Nc3ccc(C(F)(F)F)cc3)ccc2O[C@@H]1CN(C)S(=O)(=O)c1ccc(Cl)cc1`, for which the cytotoxicity call with HSkMC and in the assay with HepG2 was “active” in each case. Also, the growth inhibition call in the assay on S. aureus RN4220 was “inactive”.

`CN(/N=C/c1ccncc1)C1=NCCN1`: the cytotoxicity call in the assay on HSkMC and in the assay with HepG2 was “inactive” in each case. Also, the growth inhibition call in the assay with S. aureus RN4220 is “inactive”.

On to `COCC(=O)N1C[C@]2(C1)CN([C@@H](CO)c1c2c2ccc(cc2n1C)OC)C(=O)CN1CCOCC1`, for which the cytotoxicity call with HSkMC and in the assay on HepG2 was “inactive” in each case. Also, in the assay with S. aureus RN4220, the growth inhibition call was “inactive”.

In the case of `Cc1ccc(S(=O)(=O)N(C)C[C@@H]2OCCCC[C@@H](C)Oc3ccc(NC(=O)Nc4ccccc4)cc3C(=O)N([C@@H](C)CO)C[C@H]2C)cc1`, the cytotoxicity call in the assay with HSkMC was “inactive”. In addition, in the assay with HepG2, the cytotoxicity call is “active”. In addition, in the assay on S. aureus RN4220, the growth inhibition call was “inactive”.

Turning to `C[C@@H]1CN([C@H](C)CO)C(=O)c2cc(NC(=O)NC3CCCCC3)ccc2O[C@H]1CN(C)C(=O)Nc1ccc(C(F)(F)F)cc1`, the cytotoxicity call in the assay with HSkMC and with HepG2 was “inactive” each time. Also, the growth inhibition call in the assay with S. aureus RN4220 is “inactive”.

Consider `C[C@@H]1CCCCO[C@H](CN(C)Cc2ccc(C(F)(F)F)cc2)[C@H](C)CN([C@H](C)CO)C(=O)c2cc(NC(=O)Nc3ccc(C(F)(F)F)cc3)ccc2O1`, for which the cytotoxicity call in the assay on HSkMC and in the assay on HepG2 was “active” each time. Besides, the growth inhibition call in the assay with S. aureus RN4220 was “inactive”.

As to `COc1ccc(NC(=O)N(C)C[C@H]2OCCCC[C@H](C)Oc3ccc(NC(=O)NC4CCCCC4)cc3C(=O)N([C@H](C)CO)C[C@H]2C)cc1`, the cytotoxicity call in the assay on HSkMC and in the assay on HepG2 was “inactive” in each case. The growth inhibition call with S. aureus RN4220 was “inactive”.

On to `C[C@@H]1CCCCO[C@H](CN(C)C(=O)Cc2ccccc2)[C@H](C)CN([C@H](C)CO)C(=O)c2cc(NC(=O)CCC(F)(F)F)ccc2O1`, for which the cytotoxicity call in the assay on HSkMC and in the assay on HepG2 was “inactive” each time. The growth inhibition call in the assay on S. aureus RN4220 was “inactive”.

As to `COc1ccc(CN(C)C[C@H]2Oc3c(NS(=O)(=O)c4cn(C)cn4)cccc3C(=O)N([C@H](C)CO)C[C@H]2C)cc1`, the cytotoxicity call with HSkMC and in the assay on HepG2 was “inactive” each time. For the same molecule, the growth inhibition call in the assay with S. aureus RN4220 was “inactive”.

For the molecule `C[C@H](CO)N1C[C@H](C)[C@@H](CN(C)Cc2cccc(C(=O)O)c2)Oc2ncc(C#CCN(C)C)cc2C1=O`, the cytotoxicity call in the assay with HSkMC and with HepG2 was “inactive” in each case. In addition, the growth inhibition call with S. aureus RN4220 was “inactive”.

Turning to `CN(Cc1[nH]nc2c1CCCC2)C(=O)Cc1n[nH]c(=O)[nH]1`, the cytotoxicity call in the assay on HSkMC and in the assay with HepG2 was “inactive” in each case. Moreover, the growth inhibition call with S. aureus RN4220 was “inactive”.

As for `O=C1CN(S(=O)(=O)Cc2ccccc2)C[C@@H]2[C@@H](c3ccc(C#Cc4ccc(F)cc4)cc3)[C@H](CO)N12`, the cytotoxicity call with HSkMC was “inactive”. Further, the cytotoxicity call in the assay with HepG2 is “active”. Further, the growth inhibition call in the assay on S. aureus RN4220 is “inactive”.

On to `O=[N+]([O-])c1ccc(/C=C/CN(C/C=C/c2ccc([N+](=O)[O-])cc2)CCCNS(=O)(=O)c2cccc3cnccc23)cc1`, for which the cytotoxicity call in the assay with HSkMC and in the assay with HepG2 was “inactive” in each case. Further, the growth inhibition call with S. aureus RN4220 was “inactive”.

Turning to `C[C@@H]1CN([C@H](C)CO)C(=O)c2cc(NC(=O)Nc3ccc(C(F)(F)F)cc3)ccc2O[C@@H](C)CCCCO[C@@H]1CN(C)Cc1ccc(C(F)(F)F)cc1`, the cytotoxicity call in the assay on HSkMC was “active”. The cytotoxicity call in the assay on HepG2 was “inactive”. Moreover, the growth inhibition call with S. aureus RN4220 was “inactive”.

Consider `CN(C)CC#Cc1ccc([C@H]2[C@H](CO)N3C(=O)CN(C(=O)CN(C)C)C[C@@H]23)cc1`, for which the cytotoxicity call with HSkMC and in the assay with HepG2 was “inactive” each time. Also, the growth inhibition call in the assay with S. aureus RN4220 is “inactive”.

`CC(C)NC(=O)N(C)C[C@@H]1Oc2c(NS(=O)(=O)c3ccc(Cl)cc3)cccc2C(=O)N([C@H](C)CO)C[C@@H]1C`: the cytotoxicity call in the assay on HSkMC and in the assay on HepG2 was “inactive” each time. In the assay on S. aureus RN4220, the growth inhibition call is “inactive”.

As to `COc1ccccc1C#Cc1cnc2c(c1)C(=O)N([C@@H](C)CO)C[C@@H](C)[C@@H](CN(C)S(=O)(=O)c1cn(C)cn1)O2`, the cytotoxicity call in the assay with HSkMC and with HepG2 was “inactive” in each case. Moreover, the growth inhibition call with S. aureus RN4220 was “inactive”.

Regarding `C[C@@H]1CCCCO[C@@H](CN(C)CC2CCCCC2)[C@@H](C)CN([C@H](C)CO)C(=O)c2cc(NC(=O)CCCN(C)C)ccc2O1`, the cytotoxicity call in the assay on HSkMC and in the assay with HepG2 was “inactive” each time. The growth inhibition call in the assay with S. aureus RN4220 is “inactive”.

With `C[C@@H]1CCCCO[C@H](CN(C)Cc2ccc(Cl)c(Cl)c2)[C@@H](C)CN([C@H](C)CO)C(=O)c2cc(NS(=O)(=O)c3ccc(F)cc3)ccc2O1`, the cytotoxicity call with HSkMC and in the assay on HepG2 was “inactive” in each case. Also, in the assay with S. aureus RN4220, the growth inhibition call is “inactive”.

As to `C[C@@H]1CCCCO[C@H](CN(C)Cc2ccc3c(c2)OCO3)[C@H](C)CN([C@H](C)CO)C(=O)c2cc(NC(=O)NC3CCCCC3)ccc2O1`, the cytotoxicity call in the assay on HSkMC (human skeletal muscle cells) and with HepG2 was “inactive” in each case. For the same molecule, the growth inhibition call with S. aureus RN4220 was “inactive”.
